{
  "sequences": {"note": "Amino acid sequences for entries named in this document (tags omitted).", "UniProt O00505": "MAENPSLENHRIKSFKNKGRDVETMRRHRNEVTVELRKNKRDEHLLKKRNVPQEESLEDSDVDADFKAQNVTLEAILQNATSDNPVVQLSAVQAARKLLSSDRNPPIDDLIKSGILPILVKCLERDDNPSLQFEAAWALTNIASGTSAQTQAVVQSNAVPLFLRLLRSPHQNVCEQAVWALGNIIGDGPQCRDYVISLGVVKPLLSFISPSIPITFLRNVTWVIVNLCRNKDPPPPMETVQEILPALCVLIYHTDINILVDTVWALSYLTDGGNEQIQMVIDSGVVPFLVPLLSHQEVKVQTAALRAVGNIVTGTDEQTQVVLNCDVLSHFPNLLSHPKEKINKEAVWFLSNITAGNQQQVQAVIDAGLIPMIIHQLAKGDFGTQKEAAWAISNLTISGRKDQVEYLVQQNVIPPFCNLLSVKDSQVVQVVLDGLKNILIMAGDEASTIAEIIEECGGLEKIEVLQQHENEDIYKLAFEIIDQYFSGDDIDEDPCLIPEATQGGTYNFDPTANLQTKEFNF", "UniProt P23025": "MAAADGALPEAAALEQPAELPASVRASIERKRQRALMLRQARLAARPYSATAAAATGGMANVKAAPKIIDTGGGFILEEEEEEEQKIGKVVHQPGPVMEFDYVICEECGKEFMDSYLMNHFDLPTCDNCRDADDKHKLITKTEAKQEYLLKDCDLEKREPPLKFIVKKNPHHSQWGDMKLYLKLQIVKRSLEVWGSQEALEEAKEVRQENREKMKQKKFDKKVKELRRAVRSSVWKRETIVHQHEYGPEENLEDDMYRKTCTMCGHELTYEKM", "UniProt P52294": "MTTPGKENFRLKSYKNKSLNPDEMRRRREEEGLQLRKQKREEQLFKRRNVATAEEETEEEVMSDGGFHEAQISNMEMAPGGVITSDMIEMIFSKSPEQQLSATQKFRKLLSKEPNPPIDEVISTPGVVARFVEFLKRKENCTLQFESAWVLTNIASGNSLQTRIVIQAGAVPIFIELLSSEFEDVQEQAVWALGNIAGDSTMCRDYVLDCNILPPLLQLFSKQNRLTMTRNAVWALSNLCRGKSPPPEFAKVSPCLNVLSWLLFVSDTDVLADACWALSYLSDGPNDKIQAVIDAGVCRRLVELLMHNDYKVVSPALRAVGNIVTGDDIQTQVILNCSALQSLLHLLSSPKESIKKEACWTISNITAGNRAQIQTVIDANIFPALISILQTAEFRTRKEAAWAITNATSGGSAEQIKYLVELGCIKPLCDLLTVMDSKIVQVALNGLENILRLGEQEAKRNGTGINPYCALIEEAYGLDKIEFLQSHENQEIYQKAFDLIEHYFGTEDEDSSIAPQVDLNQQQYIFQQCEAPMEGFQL"},
  "source": "paper PMC3704644",
  "key": {"[1]": {"target": "importin-α7, endogenous (human (endogenous in H1299, GM04429)) (UniProt O60684)", "experiment": "co-IP; as a1 but lysates of mock-treated H1299 cells (no UV); IP with importin-α4 or importin-α7 antibody, Western blot of XPA"}, "[2]": {"target": "importin-α4, endogenous (human (endogenous in H1299, A549, GM04429)) (UniProt O00505)", "experiment": "co-IP; as a1 but lysates of mock-treated H1299 cells (no UV); IP with importin-α4 or importin-α7 antibody, Western blot of XPA"}, "[3]": {"target": "importin-α7, endogenous (human (endogenous in H1299, GM04429)) (UniProt O60684)", "experiment": "co-IP; importin-α4 or importin-α7 immunoprecipitates from H1299 lysates washed 5 min at 4°C with high salt buffer (25 mM Tris-HCl pH 8.0, 0.6 M NaCl, 0.2% NP-40, 1 mM EDTA); Western blot of the XPA left"}, "[4]": {"target": "importin-α4, endogenous (human (endogenous in H1299, A549, GM04429)) (UniProt O00505)", "experiment": "co-IP; importin-α4 or importin-α7 immunoprecipitates from H1299 lysates washed 5 min at 4°C with high salt buffer (25 mM Tris-HCl pH 8.0, 0.6 M NaCl, 0.2% NP-40, 1 mM EDTA); Western blot of the XPA left"}, "[5]": {"target": "importin-α7, endogenous (human (endogenous in H1299, GM04429)) (UniProt O60684)", "experiment": "co-IP; endogenous proteins; whole cell lysates of H1299 cells UV-C irradiated (20 J/m^2, 1/2 h recovery), or of A549 cells with control or ATR siRNA, mock or UV; NETN buffer (20 mM Tris-HCl pH 8.0, 100 mM NaCl, 1 mM EDTA, 0.5% NP-40), 4°C overnight; IP with importin-α4 or importin-α7 antibody, protein G-agarose, Western blot of XPA"}, "[6]": {"target": "importin-α4, endogenous (human (endogenous in H1299, A549, GM04429)) (UniProt O00505)", "experiment": "co-IP; endogenous proteins; whole cell lysates of H1299 cells UV-C irradiated (20 J/m^2, 1/2 h recovery), or of A549 cells with control or ATR siRNA, mock or UV; NETN buffer (20 mM Tris-HCl pH 8.0, 100 mM NaCl, 1 mM EDTA, 0.5% NP-40), 4°C overnight; IP with importin-α4 or importin-α7 antibody, protein G-agarose, Western blot of XPA"}, "[7]": {"target": "purified recombinant XPA protein (human) (UniProt P23025)", "experiment": "co-IP; 1.0 µg purified recombinant XPA mixed with 2 mg lysate of mock or UV-irradiated (20 J/m^2, 1/2 h recovery) GM04429 (XPA-/-) cells; IP with antibody to the C-terminal of XPA, 4°C overnight, protein G-agarose, NETN washes; Western blot of importins; only the target purified"}, "[8]": {"target": "importin-α4, endogenous (human (endogenous in H1299, A549, GM04429)) (UniProt O00505)", "experiment": "pull-down; importin-α4 or importin-α7 immunoprecipitated from mock or UV-irradiated H1299 lysates, washed with high salt (0.6 M NaCl, 0.2% NP-40), held on beads in 200 µl NETN; 0.5 µg purified XPA added, overnight at 4°C, three NETN washes; Western blot of XPA; both purified"}},
  "note": "These are yes or no findings as the source states them, for the method shown. For part of these data: Binding seen in cells or lysates may run through a third protein. Some binding calls cover weakened binding; strength is not graded here.",
  "data": [
    {"substance": "Xeroderma pigmentosum Group A (XPA) protein, endogenous (from UniProt P23025 1-273)", "values": [
      {"measurement": "binding", "setting": "[1]", "value": "binds"},
      {"measurement": "binding", "setting": "[2]", "value": "binds weakly"},
      {"measurement": "binding", "setting": "[3]", "value": "no binding (condition: high salt wash (0.6 M NaCl))"},
      {"measurement": "binding", "setting": "[4]", "value": "no binding (condition: high salt wash (0.6 M NaCl))"},
      {"measurement": "binding", "setting": "[5]", "value": "binds"},
      {"measurement": "binding", "setting": "[6]", "value": "binds"}
    ]},
    {"substance": "importin-α4, endogenous (from UniProt O00505 1-521)", "values": [
      {"measurement": "binding", "setting": "[7]", "value": "binds"}
    ]},
    {"substance": "importin-α5, endogenous (from UniProt P52294 1-538)", "values": [
      {"measurement": "binding", "setting": "[7]", "value": "no binding"}
    ]},
    {"substance": "purified recombinant XPA protein (from UniProt P23025 1-273)", "values": [
      {"measurement": "binding", "setting": "[8]", "value": "binds"}
    ]}
  ]
}
